± gives the standard deviation of the averaged measurements. This is one part of the list.

The test system of this assay is PfAP2-EXP AP2 domain (GST-tagged). Kind of assay: gcPBM binding intensity (ln(normalized median fluorescence intensity)); higher = stronger DNA binding. In a few lines: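 Binding intensity is the highest Masliner-normalised natural-log median intensity over replicate spots in either probe orientation. To obtain it, GST-tagged P. falciparum DNA-binding domains made in E. coli were incubated for 1 h on an Agilent 4 × 180k array of primer-extended double-stranded 36-bp intergenic genomic probes plus negative controls. Detection used Alexa488 anti-GST antibody with scanning at 488 nm.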
Turning to AAAAGTCTCTTTTTAGTGCACATTTTATTTAAATAT, the “gcPBM binding intensity (ln)” value was determined as 8.83 ± 0.27.

As to “CAGATAAGGTGAAGCTGTACAAAAATGTTTTATAAC [XGTACX_site6783]”, the “gcPBM binding intensity (ln)” value came to 8.74 ± 0.4.

Take “TCTAATTATCACATTGCACACACATTTCCTTTTACA [CACACA_site9140]”: the “gcPBM binding intensity (ln)” value was determined as 8.92 ± 0.33. With “TAATTAATTTATGTAACACACATTGTTGATTCAATA [CACACA_site1098]” the figure was 8.56 ± 0.43; with “TTATACTGTATAGTCGCACACAAAAATATAAAATAT [CACACA_site3869]”, 8.71 ± 0.47; with “AATACACCCAGACACACACACAAAAAAAAAAAAAAA [CACACA_site513]”, 8.12 ± 0.43. For “AAAAGAGAAATGGGCACACACACACCGATTATATAT [CACACA_site4942]”, the “gcPBM binding intensity (ln)” value turned out to be 8.88 ± 0.53.

On to “TTTGAATCCTTATATACACACATTATGTAATATTAT [CACACA_site561]”, for which the “gcPBM binding intensity (ln)” value is 8.5 ± 0.35. For “ATATATATATTAAATACACACATTTTTGATTAGGTT [CACACA_site3119]”, the “gcPBM binding intensity (ln)” value stood at 9.405 ± 0.078. The result for “AATATAAAAATGTTTACACACACACCCAAATATATT [CACACA_site2511]” reads 8.91 ± 0.45. As to “AGAATTACTTAAAAAAGTACATAAAATTATTTAAAA [XGTACX_site2205]”, the “gcPBM binding intensity (ln)” value turned out to be 8.18 ± 0.31. Consider “ATTACATTTTTAATGCGTACTAAAAATGTATATAAG [XGTACX_site6384]”, for which the “gcPBM binding intensity (ln)” value came to 8.59 ± 0.38. With “TTATTATCTCTTGTCATTATTATATACTAAGAAGTA [CACACA_negctrl_site410]” the figure was 8.53 ± 0.47; with “AATATGAAATATATTACACACATTTATATGTTGAAA [CACACA_site1427]”, 8.22 ± 0.36; with “AAAAGGAAAATACTAGCACACAATATATAATAAACA [CACACA_site285]”, 8.73 ± 0.6. With “ATATTGTAAGTAAAATGTAATAAATATAATAAAATA [CACACA_negctrl_site697]”, the “gcPBM binding intensity (ln)” value worked out at 8.6 ± 0.4. The result for “TTAGTATATACATTTGCACACATTATTTTTTAACAT [CACACA_site2618]” reads 8.98 ± 0.4; that for “TCCTTGCATTTTAAAACACACAAAAATTAATTGTTA [CACACA_site7152]”, 8.55 ± 0.32; that for “TTTCTAATTATTTCCCTTCAAATATATTAATATCGT [CACACA_negctrl_site429]”, 8.6 ± 0.42. With “TAAAAATGTGGACACACACACATATATATATTTAAT [CACACA_site4941]” the figure was 8.67 ± 0.28; with “ATATATATTATTATATGTACATATAAATATATTAAT [XGTACX_site5270]”, 8.43 ± 0.16.

“TTCATATAATTATATACATGCATAAATTCTAAGTAA [TGCATGCA_site622]”: the “gcPBM binding intensity (ln)” value is 8.65 ± 0.24. Consider “TTCATATATTATTATGCATGTTCATAAATTATCTAA [TGCATGCA_site896]”, for which the “gcPBM binding intensity (ln)” value is 8.7 ± 0.26. Consider “ATTTTATAAACAAATGAACACACAAACATATATATA [CACACA_site9036]”, for which the “gcPBM binding intensity (ln)” value came to 8.76 ± 0.52.

Turning to “TACATACATAAACACACACACACATATATATATATA [CACACA_site8953]”, the “gcPBM binding intensity (ln)” value was 10.1 ± 0.35. The result for “ACCCATTCAAATTTCGCACACACATACAAAAAAAAA [CACACA_site3094]” reads 8.79 ± 0.32; that for “CATTAATGACATGATTGTACATAAGCTTTTTTACAT [XGTACX_site1888]”, 9.01 ± 0.45. The result for “ATTTGTGTATATTAGAGTACATAAAATTAGAGGAAC [XGTACX_site1654]” reads 9.11 ± 0.25.

For “ATCAAAAGAAAACACACACACATACATATATATATA [CACACA_site3795]”, the “gcPBM binding intensity (ln)” value turned out to be 9.81 ± 0.28.

As to “TATTTAAAAATAAAATGTACATATTATTATGCATTA [XGTACX_site1303]”, the “gcPBM binding intensity (ln)” value worked out at 8.44 ± 0.18. The result for “TTACATATTTATGATTGTACACATTTATAAACAATA [XGTACX_site2190]” reads 8.37 ± 0.2; that for “TTAATATTGTTATAGCGTACAAATAAACATATTAAA [XGTACX_site8153]”, 8.49 ± 0.33.

On to TGATTCTAACTTATGGTGCAACATTATGGACACCGT, for which the “gcPBM binding intensity (ln)” value was 8.84 ± 0.042.

With “AAAAGCTATAAAAATCGGTAATTTATAACAGGAATT [CACACA_negctrl_site469]”, the “gcPBM binding intensity (ln)” value worked out at 8.57 ± 0.4. For “AATGTTAAGGAGGGGAGTACATAAAATTCTCTCTCC [XGTACX_site1990]”, the “gcPBM binding intensity (ln)” value worked out at 8.56 ± 0.35.

With “ATTATGTACTATTATACACACGTTTAATTGTAAATT [CACACA_site4278]”, the “gcPBM binding intensity (ln)” value stood at 8.6 ± 0.31.

As to “ATTATACACGCGCGCACACACAACAAAAAAAAAAAA [CACACA_site7630]”, the “gcPBM binding intensity (ln)” value came out at 8.56 ± 0.4.

Turning to “ATAATAATAAAGTGAACACACACATATAATATATAT [CACACA_site9378]”, the “gcPBM binding intensity (ln)” value was 8.62 ± 0.35.

As to “TAAATAAACAAATTAACACACAGAATTTTTTTTTTC [CACACA_site1674]”, the “gcPBM binding intensity (ln)” value turned out to be 8.19 ± 0.35. For “TGGTAACAGCATAGAAAATGGACAAACGAAATATAA [GTGCAC_negctrl_site537]”, the “gcPBM binding intensity (ln)” value was 9.05 ± 0.56. With “TATTATCTCTTATGAACACACATTTTTATTTTCAAA [CACACA_site3353]” the figure was 8.55 ± 0.49; with “ATATCGTATATGAGTGGTACTAATATGTAAAAAAAA [XGTACX_site7830]”, 8.59 ± 0.36. With “TTTATGGGTATGTTTACACACATAAAAAAATATATG [CACACA_site5646]” the figure was 8.41 ± 0.34. With “ATATATATGAAAATATGTACATATATATATATATAA [XGTACX_site7550]” the figure was 8.66 ± 0.3; with “AAAGTTATAATACGTACACACCTTATCTTTTTGGCT [CACACA_site6267]”, 8.65 ± 0.41.

In the case of ATATAAGTATTTTGAATGCACTTTCTTTTTTTTTTT, the “gcPBM binding intensity (ln)” value worked out at 8.55 ± 0.27.

For the sequence “TTATAAAATAATTAATGTACGTTTATGTGTATCGAA [XGTACX_site6117]”, the “gcPBM binding intensity (ln)” value came out at 8.48 ± 0.29.

Take “ACTGAAAAAAGAAATACACACATTCTGGATCATATA [CACACA_site3860]”: the “gcPBM binding intensity (ln)” value was 8.32 ± 0.58. With “AACGATATCTGTACTACACACATTATGTCATCCTAT [CACACA_site5374]” the figure was 9.07 ± 0.45; with “ATTAACACTGAAAAATGTACATATATAAATATAAGC [XGTACX_site8222]”, 8.63 ± 0.5. As for “AATATTAAAAACAAAACACACAAAAAAAAATAAACT [CACACA_site6470]”, the “gcPBM binding intensity (ln)” value amounted to 8.71 ± 0.54. Turning to “TAAAATAATACAAAATGTACAAAATTTACAAAATGT [XGTACX_site3541]”, the “gcPBM binding intensity (ln)” value amounted to 8.29 ± 0.28. Consider “AATATAGAACAATGTTGTACATATAATAATCTTATA [XGTACX_site4671]”, for which the “gcPBM binding intensity (ln)” value turned out to be 8.24 ± 0.3.

In the case of “ATGTAAATTAAACATGGTACACATTATACAAAATTA [XGTACX_site5675]”, the “gcPBM binding intensity (ln)” value was found to be 8.73 ± 0.42.

Consider “ATTTTGTTCGAAAGGTGTACATATACAAAAATTATG [XGTACX_site957]”, for which the “gcPBM binding intensity (ln)” value worked out at 8.87 ± 0.4. The result for “TAATAATAAAAATAAACACACATATAGATGTATATA [CACACA_site7360]” reads 8.25 ± 0.35; that for “ATTGCTTTTCTTTTTGCACACTTATGCATATATATA [CACACA_site2584]”, 9.36 ± 0.42.

The values are drawn from the supplement of paper PMC11417369.
